According to publication PMC6919601, “Identification of Plasmodium dipeptidyl aminopeptidase allosteric inhibitors by high throughput screening” (PLoS ONE, 2019):
Several values for one entry are separate records, joined by “and”; a condition that tells them apart may be missing. Identical values can stand only once. The campaign covered roughly 110,000 compounds. About 230 (0.21%) showed an effect of 50% or more. The list shows a part of the results.

These molecules were tested against DPAP1 (Plasmodium falciparum, UniProt Q8IIJ9) (assay: primary screen, percent inhibition; read by cleavage of a fluorogenic dipeptide substrate; higher = more effect of the substance).
Sequence of DPAP1 (Q8IIJ9 whole entry, looked up): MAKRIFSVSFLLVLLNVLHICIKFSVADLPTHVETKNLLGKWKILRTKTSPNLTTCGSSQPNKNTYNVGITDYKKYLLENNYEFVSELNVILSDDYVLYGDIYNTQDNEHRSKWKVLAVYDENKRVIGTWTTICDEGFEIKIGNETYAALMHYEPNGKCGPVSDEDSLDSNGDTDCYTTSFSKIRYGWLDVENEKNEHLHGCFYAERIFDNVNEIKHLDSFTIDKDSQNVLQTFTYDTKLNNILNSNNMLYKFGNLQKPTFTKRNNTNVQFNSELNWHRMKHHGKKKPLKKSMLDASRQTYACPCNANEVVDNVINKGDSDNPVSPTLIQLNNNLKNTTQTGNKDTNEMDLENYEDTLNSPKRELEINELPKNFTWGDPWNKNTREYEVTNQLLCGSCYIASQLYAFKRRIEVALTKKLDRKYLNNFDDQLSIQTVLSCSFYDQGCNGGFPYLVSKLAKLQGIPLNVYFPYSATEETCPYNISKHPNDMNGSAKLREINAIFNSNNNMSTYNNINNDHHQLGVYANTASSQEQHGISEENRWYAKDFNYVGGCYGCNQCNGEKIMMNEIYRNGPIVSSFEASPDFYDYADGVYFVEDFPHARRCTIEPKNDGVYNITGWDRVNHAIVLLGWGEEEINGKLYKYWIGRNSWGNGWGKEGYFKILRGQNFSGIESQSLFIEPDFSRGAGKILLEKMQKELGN
Parameters: species or system P. falciparum D10 trophozoite lysates; single well
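Also: 30 min substrate incubation versus DMSO and 10 µM JCP410 controls.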

Point of comparison: `CC1CCCN(C(=O)c2cc(-c3ccco3)[nH]n2)C1` (stereo not shown), “% Inhibition @ 10 uM” value 4.8%. Against it:
- NC(=O)c1c(NS(=O)(=O)c2ccc(Br)cc2)sc2c1CCCCCC2 — higher, 17.4%
- CC(Oc1ccccc1)C(=O)NCc1ccccn1 (stereo not shown) — lower, -2.83%
- CCOC(=O)c1c(/N=C/C2C(=O)CC(C)(C)CC2=O)sc2c1CCCC2 — higher, 5.3%
- Cc1ccc(COC(=O)N[C@@H](CC(C)C)C(=O)NCC#N)cc1C — lower, -4.72%
- Cc1ccc2c(c1)cc1c(=O)n(CC(=O)NC(C)c3ccc4c(c3)OCCO4)nc(C)n12 (stereo not shown) — higher, 6.35%
- Cc1cc(C)nc(N2CCN(c3c4c(c(C#N)c5nc6ccccc6n35)CCC4)CC2)n1 — lower, -5.7%
- COc1ccc(CS(=O)(=O)C[C@H](NC(=O)c2ccccc2)C(=O)NCC#N)cc1 — lower, -1.83%
- CCN(CC)CCCNC(=O)C1CCN(c2nc3ccccc3n3cccc23)CC1 — lower, -1.97%
- COc1ccc(-c2nc3c4cnn(-c5cccc(F)c5)c4ncn3n2)cc1OC — lower, -2.85%
- O=C(NCc1ccco1)c1nnc(-c2cccc(Cl)c2)o1 — higher, 5.43%
- COc1ccc(-c2noc(CC(=O)NCc3ccc4c(c3)OCO4)n2)cc1 — lower, -2.85%
- O=C(CCC(=O)N1CCC(c2c[nH]c3ccccc23)(c2c[nH]c3ccccc23)CC1)N1CCOCC1 — lower, -0.637%
- Cc1ccc(C(=O)NC(C)C23CC4CC(CC(C4)C2)C3)o1 (stereo not shown) — lower, 1.69%
- Cn1c2ccccc2c2cnn(CC(=O)NCCCN3CCCC3=O)c(=O)c21 — lower, 1.41%
- COc1ccc2nc(NC(=O)/C=C/c3ccccc3)sc2c1 — lower, -7.35%
- COc1ccc(NC(=O)c2sc3ccccc3c2Cl)cc1OC — lower, 2.7%
- CCN(CCCNC(=O)CCn1c(=O)c2cccn2c2cccnc21)Cc1ccccc1 — lower, -5.43%
- O=C(Nc1ccc(S(=O)(=O)Nc2ccc(Cl)cc2)cc1)c1ccc(Br)o1 — lower, 1.27%
- Cc1cc(C)nc(SCCC(=O)Nc2ccccc2C)n1 — lower, 1.83%
- CCOC(=O)Nc1ccc2c(c1)N(C(=O)CNC1CCCCC1)c1ccccc1CC2 — lower, -4.26%
- COc1ccc(-c2cc(C(=O)NCc3ccc4c(c3)OCO4)[nH]n2)cc1 — lower, -1.3%
- COc1ccc(-c2noc(C(C)Oc3ccc(Cl)cc3Cl)n2)cc1OC (stereo not shown) — lower, 2.17%
- COc1ccc(-c2cn3c4c(=O)n(C)c(=O)n(C)c4nc3n2-c2ccc(C)cc2)cc1 — higher, 20.6%
- CCn1ncc(Cl)c1C(=O)NC(C)c1ccccc1 (stereo not shown) — lower, 4.09%
- OC1=C2C(=Nc3nn(-c4ccccc4)c(O)c3C2c2ccc(C(F)(F)F)cc2)CCC1 (stereo not shown) — higher, 5.3%
- Cc1ccc(Cl)cc1NC(=O)CCC(=O)Nc1cc(Cl)ccc1C — lower, -3.18%
- O=C(c1cccnc1)N1CCN(Cc2ccncc2)CC1 — lower, -8.85%
- COc1ccc(C2=NN(CC(=O)NCc3ccco3)C(=O)CC2)cc1 — lower, 3.24%
- COc1ccc(S(=O)(=O)N(Cc2ccccc2)c2ccccn2)cc1 — higher, 5.29%
- CN1CCN(C(=O)C2CCCCC2C(=O)O)CC1 (stereo not shown) — lower, 0.847%
- COCCNC(=O)c1nnc(-c2cccc(Cl)c2)o1 — lower, 2.5%
- CC(C)CC(C(=O)N1CCC2(CC1)OCCO2)N1Cc2ccccc2C1=O (stereo not shown) — lower, 1.86%
- CN(c1ccc(C(=O)Nc2ccccc2C(=O)NC2CCCCC2)cc1)S(C)(=O)=O — lower, 3.37%
- COc1ccc(-c2nn(CC(=O)O)cc2/C=C/c2cc(C(F)(F)F)nc(O)n2)cc1 — lower, 1.76%
- Cc1ccccc1OCCCCCN1CCOCC1 — lower, 1.13%
- COC(=O)c1cc(S(=O)(=O)N(Cc2ccc(F)cc2)Cc2cccnc2)c[nH]1 — lower, 1.26%
- COc1ccc(-c2csc3ncn(CC(=O)Nc4cccc(C)c4C)c(=O)c23)cc1 — higher, 6.05%
- CCCS(=O)(=O)c1nc(S(=O)(=O)c2ccc(C)cc2)c(NCC2CCCO2)s1 (stereo not shown) — lower, -5.89%
- CCc1c(C)sc(NC(=O)COc2ccc(Cl)cc2)c1C#N — lower, -1.07%
- O=C(O)C1CCCCC1C(=O)Nc1nc(-c2ccc(F)cc2)cs1 (stereo not shown) — lower, -3.71%
- O=C(c1nc2ncccn2n1)N(C1CCCCC1)C1CCCCC1 — lower, -5.41%
- CCOC(=O)C1=C(O)/C(=C\c2sccc2C)N=C1C — lower, 4.26%
- Cc1nc(C)c2c(O)cc(-c3ccccc3)nc2n1 — lower, 3.83%
- O=C(c1csc2c1CCCC2)N1CCC2(CC1)OCCO2 — lower, -1.44%
- COc1ccc(-c2nnc(SCC(=O)N3CC(C)CC(C)C3)o2)cc1OC (stereo not shown) — lower, 4.05%
- COc1ccc(CNS(=O)(=O)c2ccc(OC)c(Cl)c2Cl)cc1 — lower, -5.11%
- CCOC(=O)N1CCC(Nc2nc3ccccc3nc2NS(=O)(=O)c2ccc(Cl)cc2)CC1 — lower, -5.76%
- O=S(=O)(NCc1ccccc1)c1ccc2nc(O)ccc2c1 — lower, -5.74%
- Cc1cccc2c1-c1sc(C(=O)NCCCN3CCOCC3)cc1CO2 — lower, -1.58%
- CCOc1ccc(C2=C/C(=C3/N=C(c4ccco4)OC3=O)c3ccccc3O2)cc1 — higher, 5.12%
- COc1ccc(N2C(=O)CC(NCC34CC5CC(CC(C5)C3)C4)C2=O)cc1 (stereo not shown) — lower, 0.231%
- COc1ccc(Br)cc1CN(C)C1CCN(C)CC1 — lower, 2.47%
- CCC(C)(C)NS(=O)(=O)c1c[nH]c(C(=O)OC)c1 — lower, 4.14%
- CN1CCN(CN2C(=O)C(=O)c3ccccc32)CC1 — lower, 0.501%
- O=C(c1ccco1)N1CCCN(C(=O)c2ccco2)CC1 — lower, -2.42%
- Cc1ccc(-c2[nH]nc3c2C2(C(=O)Nc4ccc(Cl)cc42)C(C#N)=C(N)O3)cc1 (stereo not shown) — higher, 6.98%
- COc1cc(OC)c(OC)cc1CN1CCCN(C)CC1 — lower, 1.4%
- Cc1nc(O)nc(O)c1S(=O)(=O)N1CCc2ccccc2C1 — lower, -1.08%
- Cc1nc2ccc(S(=O)(=O)NC(CC(C)C)C(=O)N3CCn4c3nc3ccccc34)cc2s1 (stereo not shown) — higher, 5.32%
- CCn1c(C(=O)OC)cc2oc(C)cc21 — higher, 17.8%
- CC(C)(C)c1ccc(C(=O)N(Cc2ccccc2F)C2CCS(=O)(=O)C2)cc1 (stereo not shown) — lower, 3.62%
- CC1=C(C(=O)Nc2ccc(Br)cn2)C(c2cn(C)nc2C)C2=C(O)CC(C)(C)CC2=N1 (stereo not shown) — lower, 0.385%
- CC1=NNc2nc3c(c(=O)n(C)c(=O)n3C)n2C1C (stereo not shown) — lower, -1.47%
- CCOC(=O)CN1CCCC1=C(C#N)C#N — lower, 3.47%
- Cc1cc(Cl)ccc1OCCOCCN1CCC(C)CC1 — lower, -1.22%
- O=C(/C=C/c1ccco1)NCCc1cccc(F)c1 — lower, -3.21%
- Cc1ccccc1-c1nc2s/c(=C\c3ccc(F)cc3)c(=O)n2n1 — lower, -2.98%
- CCc1cc2c(=O)c(Oc3ccccc3)c(C)oc2cc1OC — lower, 0.161%
- Cc1ccc(NC(=O)CSc2nc3ccccc3[nH]2)cc1 — lower, 3.69%
- CCN1CCCC1CNC(=O)Nc1cn(C)c(=O)c2ccccc12 (stereo not shown) — lower, 3.48%
- COCCCNC(=O)c1cc(C)nc2c1c(C)nn2-c1ccc(C)cc1 — lower, 2.73%
- CCc1ccc(COC(=O)N[C@@H](CC(C)C)C(=O)NCC#N)cc1 — lower, -3.04%
- CCOC(=O)c1cc2c(=O)n3ccccc3nc2n(C2CCCCC2)/c1=N\C(C)=O — lower, -8.38%
- CC1CCN(C(=O)c2ccccc2NC(=O)c2cccc(S(=O)(=O)N(C)C)c2)CC1 — lower, -7.76%
- COc1ccccc1C(=O)N1CCN(C(=O)COc2ccc(Cl)cc2)CC1 — lower, 3.43%
- CCCC1CCC(C2CCC(c3noc(-c4ccccc4C)n3)CC2)CC1 (stereo not shown) — lower, 4.38%
- CC1CN(Cc2ccc[nH]2)CC(C)O1 (stereo not shown) — lower, -1.5%
- COc1cc(CNC(C)(C)C)cc(Br)c1OCc1cccs1 — lower, -1.16%
- CCOc1cc(/C=C2/NC(=O)N(Cc3ccccc3F)C2=O)ccc1O — lower, -1.32%
- COc1ccccc1CN1CC(C(=O)NCc2cccnc2)CC1=O (stereo not shown) — lower, 2.18%
- COc1cccc2c1oc(=O)c1c(N)nc3c(c12)CC(C(C)(C)C)CC3 (stereo not shown) — lower, -3.13%
- Cc1ccc(-c2cn3c(n2)sc2cc(C(=O)N4CCN(c5ncccn5)CC4)ccc23)c(C)c1 — higher, 15.3%
- CC(CCc1ccccc1)NC(=O)CCCn1c2ccccc2c2cnnc(O)c21 (stereo not shown) — lower, 1.38%
- O=C(Nc1nc(-c2ccccc2)cs1)C1CCCCC1 — lower, -2.42%
- O=C(NC1CCN(Cc2ccccc2)CC1)[C@H](Cc1ccccc1)N1Cc2ccccc2C1=O — lower, -2.25%
- Cc1ccc(NC2=NC(=O)/C(=C\c3ccc(N(C)C)cc3)S2)cc1 — lower, -8.88%
- CCN(CC)Cc1c(O)ccc2c(=O)c(-c3ccccc3)coc12 — lower, -5.7%
- Cc1cccc(OCC(=O)O/N=C(\N)c2ccncc2)c1C — lower, 2.25%
- CCC(=O)Nc1nc(C23CC4CC(CC(C4)C2)C3)c(C)s1 — lower, -5.87%
- Oc1ccc(CNc2cccc(F)c2)c2cccnc12 — lower, 1.89%
- Cc1nnc(N2CCN(C(=O)NC3CCCC3)CC2)c2nn(-c3ccccc3)c(C)c12 — lower, 3.24%
- CCC(C(=O)NCc1cccc(OC)c1)n1ncn2c(cc3occc32)c1=O (stereo not shown) — higher, 4.83%
- O=C(CN1CCCCC1)Nc1ccc2c(c1)OCCO2 — lower, 1.08%
- COc1cc(OC)c(NC(=O)c2cccnc2)cc1Cl — lower, -3.37%
- CCNC(=O)CN(c1ccc(F)cc1)S(=O)(=O)c1ccccc1 — lower, 2.5%
- COC(=O)c1ccc(NC(=O)c2ccc([N+](=O)[O-])cc2Cl)cc1 — lower, 2.54%
- CN(Cc1ccccc1)C(=O)c1cc(S(=O)(=O)N2CCOCC2)cn1C — lower, -2.17%
- CCCc1n[nH]c(SCc2cccc(Oc3ccccc3)c2)n1 — lower, -1.81%

`O=C(CN1C(=O)c2ccccc2S1(=O)=O)NCCSCc1ccc(Cl)cc1` was tested, and the “% Inhibition @ 10 uM” value was -5.48% and -3.65%.
